# Laboratory results: PubChem BioAssay (Tox21)
# Inconclusive results, whose numbers are uncertain, are shown with a selection of clear calls. For part of these data: A potency beside an inconclusive call is a rough fit, not a confirmed value. The source holds several records for some structures; these can differ, active in one and inactive in another. Activity calls are given as the source filed them. The call rests on the fitted dose curve; in most records, active means well fitted curve in the direction sought with a large enough effect in the repeat runs; inconclusive means weak or mixed curves; inactive means no such curve, though single readings can be large; an effect the other way counts as inactive or inconclusive.
# How the values were obtained:
# [1] = A CellTox Green Cytotoxicity Assay to monitor cytotoxicity in HEK293 cells - 40 hour (AID 1224871); further: nearly all actives have a fitted effect of over 45% in size; further: potency means the concentration at half of the fitted maximal effect
# Outline: (§1)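 Read-out: fluorescence of a cell-impermeant cyanine dye staining DNA of dead cells, proportional to cytotoxicity. HEK293, 600 cells/well with reagent, compound (23 nL DMSO) added after 5 h; reads at 0, 8, 16, 24, 32, 40 h.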
# [2] = qHTS RealTime-Glo MT Cell Viability Assay in HepG2 cells - 32 hour (AID 1224877); further: nearly all actives have a fitted effect of over 55% in size
# Outline: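 qHTS, HepG2, 600 cells/well, RealTime-Glo (NanoLuc + prosubstrate) added with cells; 5 h preincubation; DMSO compound addition; 37 C; luminescence at 0/8/16/24/32/40 h.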
# [3] = A CellTox Green Cytotoxicity Assay to monitor cytotoxicity in HEK293 cells - 24 hour (AID 1224875); further: potency means the concentration at half of the fitted maximal effect; nearly all actives have a fitted effect of over 45% in size
# Outline: as §1
# [4] = A CellTox Green Cytotoxicity Assay to monitor cytotoxicity in HepG2 cells - 16 hour (AID 1224876); further: potency means the concentration at half of the fitted maximal effect; nearly all actives have a fitted effect of over 45% in size
# Outline: (§2)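 HepG2, 600 cells/well premixed w/ CellTox Green; 5 h settle, 37 C/5% CO2; pintool cpd add (DMSO); 37 C, 40 h; fluorescence read at 0, 8, 16, 24, 32, 40 h.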
# [5] = A CellTox Green Cytotoxicity Assay to monitor cytotoxicity in HepG2 cells - 24 hour (AID 1224878); further: potency means the concentration at half of the fitted maximal effect; nearly all actives have a fitted effect of over 45% in size
# Outline: as §2
# [6] = A CellTox Green Cytotoxicity Assay to monitor cytotoxicity in HepG2 cells - 40 hour (AID 1224879); further: potency means the concentration at half of the fitted maximal effect; nearly all actives have a fitted effect of over 40% in size
# Outline: as §2
# [7] = qHTS RealTime-Glo MT Cell Viability Assay in HEK293 cells - 16 hour (AID 1224872); further: nearly all actives have a fitted effect of over 50% in size; further: potency means the concentration at half of the fitted maximal effect
# Outline: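 Assay medium contained NanoLuc luciferase plus cell-permeant prosubstrate, added with HEK293 cells at 600 cells/well. After 5 h at 37 C/5% CO2 compounds were added; plates stayed at 37 C for 40 h with serial luminescence reads.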
# Tags describe the fitted curve by direction and shape.
structure (smiles),measurement,setting,value
CC1=CC(C)C(C=O)CC1 (stereo unspecified),Potency,[1],inactive
same,Potency,[2],inactive
CCCCOc1cc(C(=O)OCCN(CC)CC)ccc1N,Potency,[1],"inconclusive: 3.79 µM [activator, partial curve, poor fit]"
same,Potency,[3],"inconclusive: 3.01 µM [activator, partial curve, poor fit]"
same,Potency,[4],"inconclusive: 26.8 µM [activator, single point]"
same,Potency,[2],inactive
same,Potency,[5],"inconclusive: 26.8 µM [activator, single point]"
same,Potency,[6],"inconclusive: 26.8 µM [activator, single point]"
OC[C@H]1O[C@@H](OCCc2ccc(O)cc2)[C@H](O)[C@@H](O)[C@@H]1O,Potency,[7],inactive
CN(C)CCOCCN(C)C,Potency,[1],active: 43.6 µM
same,Potency,[4],active: 43.6 µM
Oc1ccc(O)c2c(O)cccc12,Potency,[7],"inconclusive: 61.1 µM [cytotoxic, single point]"
NC[C@H](O)c1ccc(O)c(O)c1,Potency,[7],inactive
CCCCCCCCSCc1cc(C)c(O)c(CSCCCCCCCC)c1,Potency,[7],"inconclusive: 27.5 µM [cytotoxic, partial curve]"
C/C=C/C=C/CCCCCCCO,Potency,[1],"inconclusive: 61.6 µM [activator, single point]"
same,Potency,[6],"inconclusive: 61.6 µM [activator, partial curve, poor fit]"
CCOC(=O)COc1ccc2c(c1)CC(NCC(O)c1cccc(Cl)c1)CC2 (stereo unspecified),Potency,[1],"inconclusive: 49.4 µM [activator, single point]"
same,Potency,[3],"inconclusive: 49.4 µM [activator, single point]"
same,Potency,[4],active: 44 µM
same,Potency,[5],"inconclusive: 49.4 µM [activator, single point]"
same,Potency,[6],"inconclusive: 49.4 µM [activator, single point]"
